Laboratory results: PubChem BioAssay AID743279 (National Center for Advancing Translational Sciences (NCATS), 2014)
“And” between values parts separate entries of the source, which are not always exact repeats. Equal entries are not always repeated. In all, about 360,000 compounds went through this assay and about 17,000 (4.7%) were called active. The shares of active, inactive and inconclusive entries below differ from those in the screen. Cut-off read from the data, not from the text of the source: active = activity change below about -50%; inconclusive = mostly about -30% to -49%; inactive = weaker than that.

Assay: qHTS for Inhibitors of Inflammasome Signaling: IL-1-beta AlphaLISA Primary Screen
Conditions: THP-1 LPS/ATP IL-1B secretion, 16 h; at 57.5 µM, stronger effect = lower value
Procedure, shortened: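 Secreted IL-1B measured by AlphaLISA bead assay after 16 h compound exposure of THP-1 cells; compounds (final up to 57.5 uM) added 1 h before LPS (250 ng/mL) and ATP (1.25 mM) stimulation; lower signal means less secretion.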
% is set by controls: 0 for no effect and ±100 for the full control effect.

| Compound | activity change |
| --- | --- |
| CC[N+](CC)(CC)C/C(N)=N/O | inconclusive: -31.1% |
| O=C(N=C1SC2CS(=O)(=O)CC2N1c1ccccc1)c1cccc([N+](=O)[O-])c1 (stereo not given) | inactive: -11.1% |
| COc1ccc2[nH]cc(C(=O)CN3CCC(C)CC3)c2c1 | inactive: -2.95% |
| Cc1ccc(-n2cc(-c3ccccc3)c3c(N4CCOCC4)ncnc32)cc1 | inconclusive: -42.2% |
| COc1ccc(S(=O)(=O)N2CCC3(CC2)OCCO3)cc1 | inactive: -2.99% |
| COc1ccc(-c2cc(C(=O)Nc3ccc(OC)c(OC)c3)[nH]n2)c(C)c1 | inconclusive: -46.4% |
| Cn1cc(/C=C(\NC(=O)c2ccccc2Cl)C(=O)NCCCN2CCOCC2)c2ccccc21 | inconclusive: -39.9% |
| CC(C)(C)OC(=O)N(CCc1ccccc1)Cc1ccc(OCc2cccc(NC(=O)C3CC3)c2)cc1 | inconclusive: -33.4% |
| COc1ccc(S(=O)(=O)N2CCN(C(=O)C3CC(=O)N(c4ccccc4F)C3)CC2)cc1OC (stereo not given) | inactive: -11% |
| COc1cc(/C=C/C(=O)OCC(=O)N2c3ccccc3NC(=O)C2(C)C)cc(OC)c1OC | active: -65.3% |
| O=C(NC(c1ccccc1)c1ccc2ccccc2n1)C1CCN(CCOc2ccc(Cl)cc2Cl)CC1 (stereo not given) | inconclusive: -48.7% |
| O=C(N/N=C/c1ccc(Cl)c([N+](=O)[O-])c1)c1cc(-c2ccc3c4c(cccc24)CC3)n[nH]1 | inconclusive: -35.4% |
| CC(=O)C[C@H](O)CC(=O)[C@H]1OC(=O)CCCCCCCc2ccccc21 | inactive: -1.46% |
| O=C(CCc1ccc(Oc2cc([N+](=O)[O-])cc([N+](=O)[O-])c2)cc1)N1CCCCCC1 | inconclusive: -39.3% |
| COc1cc(NC(=O)c2cc(OC)c(OC)c(OC)c2)c2ncccc2c1 | inconclusive: -30.8% |
| COCCNC(=O)CN(C(=O)CCC(=O)Nc1ccccn1)c1ccc(C)cc1C | inactive: 15.6% |
| CCO[C@@H]1OC(C(=O)Nc2ccccc2)=C[C@H](c2csc3ccccc23)[C@H]1CCCO | inconclusive: -39.1% |
| Cc1ccc(N(C)S(=O)(=O)c2cccc(C(=O)NCC(c3ccco3)N3CCCC3)c2)cc1 (stereo not given) | inconclusive: -43.5% |
| Cc1c(C(=O)Nc2ccccc2N2CCN(C)CC2)oc2ccc(F)cc12 | active: -78.2% |
| Cc1ccc(N/N=C(\C#N)C(=N)N2CCCCC2)cc1 | inconclusive: -40.8% |
| COC(=O)C1=C(C)Nc2ncnn2C1c1ccc(OCc2ccccc2)cc1 (stereo not given) | inactive: 6.68% |
| Cc1ccc(NC(=O)c2cc(-c3ccccc3)nn2-c2ccccc2)cc1 | inconclusive: -46.1% |

| Compound | activity change |
| --- | --- |
| CC1CCCN(c2nc(N(C)c3ccccc3)nc(N)c2[N+](=O)[O-])C1 (stereo not given) | inconclusive: -45.7% |
| O=C(CCC1CCCCC1)Nc1ccccc1C(=O)N1CCOCC1 | inactive: 7.07% |
| CCn1cc(/C=C(\NC(=O)c2ccccc2Cl)C(=O)NCCN2CCOCC2)c2ccccc21 | inconclusive: -31.7% |
| Cc1ccc(N2CN=c3s/c(=C\c4cccnc4)c(=O)n3C2)cc1 | inconclusive: -38.1% |
| COc1ccc(CCNC(=O)c2cccc(S(=O)(=O)N3CCc4ccccc4C3)c2)cc1 | inconclusive: -43.1% |
| Cc1cccc(NC(=S)NCCc2c[nH]c3ccccc23)c1 | inactive: 2.02% |
| N#C/C=C(/N)N1CCN(c2ccc(Cl)c(Cl)c2)CC1 | inconclusive: -43.5% |
| COc1ccc(NC(=O)CSc2nc3c(c(-c4cccs4)c2C#N)CN(C)CC3)cc1OC | inconclusive: -43.2% |
| O=C(N/N=C/c1ccco1)c1cc(-c2ccc(Br)s2)[nH]n1 | inconclusive: -43.8% |
| COc1cc(NC(=O)CCN2CCN(c3ccccc3OC)CC2)cc(OC)c1 | inconclusive: -32% |
| CN(C)c1ccccc1C(=O)c1ccccc1N(C)C | inactive: 24.4% |
| COc1ccc(NC(=O)c2ccc3c(c2)NC(=O)CS3)cc1 | inconclusive: -47.1% |
| CCN(c1ccccc1)S(=O)(=O)c1ccc(NCC2COc3ccccc3O2)nc1 (stereo not given) | inconclusive: -33% |
| CCC(=O)N1CCc2nc(-c3ccccc3)sc2C1 | inconclusive: -49% |
| CCc1nc2ccc(C(=O)N(C)Cc3ccccc3)cn2c1N(CC)Cc1cccc(Br)c1 | inconclusive: -37.9% |
| Oc1nc(Nc2cccc(Cl)c2)sc1/C=C1\C=Nc2ccccc21 | inconclusive: -46% |
| Cc1ccc(S(=O)(=O)CCSc2n[nH]c(=O)n2-c2ccc3c(c2)OCCO3)cc1 | inconclusive: -43.9% |
| COc1cc(/C=C2/NC(=O)N(Cc3ccccc3F)C2=O)ccc1O | inconclusive: -49.4% |
| CC(C)c1ccc(NC(=O)CCc2ccccc2)cc1 | inconclusive: -43.9% |
| Cc1ccc(C(=O)c2cn(-c3ccc(F)c(Cl)c3)nn2)cc1 | inconclusive: -46.2% |
| COC(=O)[C@@H]1Cc2c([nH]c3ccccc23)C(C)(C)N1C(=O)CCl | active: -98.2% |
| COc1ccccc1CNCc1cc(Br)ccc1OC | inconclusive: -47.2% |

| Compound | activity change |
| --- | --- |
| O=C(Nc1cccc(Cl)c1)c1cc(S(=O)(=O)NCCc2ccc(Cl)cc2)ccc1F | active: -65.3% |
| CCOc1ccc(NC(=S)N(CCc2c(C)[nH]c3ccccc23)Cc2ccco2)cc1 | inconclusive: -35.3% |
| O=C(Nc1ccccc1)c1ccc(NC2CCCCC2)c(S(=O)(=O)N2CCOCC2)c1 | active: -52.4% |
| Cc1occc1C(=O)N/N=C/c1ccc2c(c1)OCO2 | inactive: -10.2% |
| NC(=O)C(c1ccc(Cl)cc1)c1ccc(Sc2ccc(Cl)cc2)nn1 (stereo not given) | inconclusive: -42.6% |
| Cc1cc(C)cc(C(=O)N(CCc2ccccc2)C2CC3CCC(C2)N3C)c1 (stereo not given) | active: -64.9% |
| FC(F)(F)c1ccccc1N/N=C/c1cccnc1 | inconclusive: -36% |
| Cc1ccccc1NC(=O)/C=C/c1cccc(C(F)(F)F)c1 | active: -56.9% |
| COc1cc(-c2cc(C(=O)N3CCN(c4ccccn4)CC3)c3ccccc3n2)cc(OC)c1OC | inconclusive: -47.7% |
| O=[N+]([O-])c1ccc(Nc2nc(NC3CCCCC3)nc(N3CCCC3)n2)cc1 | inactive: -23.7% |
| NC1=Nc2cccc3cccc1c23 | active: -65.3% |
| CCN(CC)CCNC(=O)c1ccc(NC(=O)c2cccc(-n3cnnn3)c2)cc1 | inactive: -6.82% |
| CC(Sc1nnc(C(C)N(C)C)n1-c1ccc(Cl)cc1)C(=O)Nc1ccc2c(c1)OCO2 (stereo not given) | inconclusive: -35.3% |
| COc1ccc(C2CC(c3ccc4ccccc4c3)=NN2C(=O)COC(=O)C2CCC(=O)N2)cc1 (stereo not given) | active: -69.5% |
| O=C(Nc1ccc(N2CCOCC2)c(Cl)c1)c1cc2ccccc2o1 | active: -78.4% |
| O=C(CCOc1cccc(Br)c1)Nc1ccc(F)c(S(=O)(=O)N2CCOCC2)c1 | inconclusive: -41.6% |
| Cc1ccc(OCC(=O)NNC(=O)CCC(=O)NCc2ccccc2)cc1 | inconclusive: -34.8% |
| CSc1ccc(CNc2ncc(-c3cccc([N+](=O)[O-])c3)n2C)cc1 | inconclusive: -43.4% |
| CCCCC(=O)Oc1c(S(=O)(=O)c2ccc(C)cc2)c(C)nn1C(C)(C)C | inconclusive: -30.7% |
| CN(CC(=O)Nc1ccccc1Cl)C(=O)c1cccc(S(=O)(=O)N2CCN(c3ccc(F)cc3)CC2)c1 | inconclusive: -39.4% |
| Cc1cc(C(=O)CCl)c(C)n1-c1cccc(S(=O)(=O)N2CCOCC2)c1 | active: -102% |
| O=C(CCCCCN1C(=O)c2cccc3cccc(c23)C1=O)NCCO | inconclusive: -46.5% |

| Compound | activity change |
| --- | --- |
| NC(=O)c1ccc(N2CCN(c3ccccc3F)CC2)c([N+](=O)[O-])c1 | inactive: -6.66% |
| Nc1c(N(CCC2=CCCCC2)C(=O)COc2ccc(F)cc2)c(=O)[nH]c(=O)n1Cc1ccccc1 | inconclusive: -39.1% |
| Cc1cc(C(=O)N(C)CC(=O)Nc2ccc(Cl)c(C(F)(F)F)c2)no1 | inactive: -10.3% |
| C=CCn1c(O)c(N=NC(=O)C(O)c2ccccc2)c2ccccc21 (stereo not given) | inconclusive: -37.8% |
| O/N=C/c1ccccc1OCc1ccccc1F | inconclusive: -36.1% |
| COc1cc(CN(C)c2ccc(S(=O)(=O)N3CCCC3)cn2)ccc1OC(F)F | inconclusive: -31.5% |
| O=C(c1cc(-c2ccc(Br)cc2)nc2ccccc12)N1CCC1 | inconclusive: -35.4% |
| Cc1ccc(C(=O)N2CCN(Cc3ccc4c(c3)OCO4)CC2)cc1C | inconclusive: -32% |
| C(C#CCCCCCCCCC[n+]1ccccc1)#CCCCCCCCCC[n+]1ccccc1 | active: -106% and active: -94.9% |
| O=C(CSc1ccc(Cl)cc1)Nc1ccccc1N1CCN(C(=O)c2ccc(Cl)cc2)CC1 | inconclusive: -39.8% |
| O=C(NCC(=O)N1CCC(Cc2ccccc2)CC1)c1ccccc1F | inconclusive: -44.9% |
| Cc1ccc(S(=O)(=O)Nc2ccc(Br)cc2C(NCC(=O)O)c2ccccc2)cc1 (stereo not given) | inactive: 8.06% |
| COc1cccc(CC(=O)OCC(=O)N(C)CC(=O)Nc2ccc(Cl)c(C(F)(F)F)c2)c1 | inactive: 4.6% |
| OC[C@@H]1CN(Cc2cccs2)C[C@H](n2cnc3c(Nc4ccccc4)ncnc32)O1 | inactive: 8.21% |
| CCOC(=O)Cc1csc(NC(=O)CCc2ccccc2)n1 | inactive: 41.7% |
| CSc1ncc(C(=O)Nc2cccc(C)c2C)c(C)n1 | inconclusive: -33% |
| O=C(Cc1cccc2ccccc12)N/N=C/c1ccc(OC(=O)/C=C/c2ccco2)cc1 | inconclusive: -32.9% |
| NCCOc1ccccc1Cc1ccccc1 | active: -62.2% |
| Clc1ccc2c(N/N=C/c3ccc(Br)cc3)ccnc2c1 | active: -98.3% |
